Data published in patent US20240076403A1 (SIMCERE ZAIMING PHARMACEUTICAL, published 2024).

Tests used:
[1] = biological target: T1, human HER2-His protein (Acro, Cat. No. HE2-H5225) (human, UniProt P04626 part only); assay: ELISA, 1 nM
T1 construct: also called human HER2 protein; recombinant human HER2-His

[2] = biological target: T1, human HER2-His protein (Acro, Cat. No. …); assay: ELISA, 10 nM
[3] = biological target: T1, human HER2-His protein (Acro, Cat. No. …); assay: ELISA, 0.1 nM
[4] = biological target: T1, human HER2-His protein (Acro, Cat. No. …); assay: ELISA, 100 nM
[5] = biological target: T1, human HER2-His protein (Acro, Cat. No. …); assay: ELISA, 0.01 nM
[6] = biological target: T1, human HER2-His protein (Acro, Cat. No. …); assay: ELISA, 0.001 nM
[7] = biological target: T1, human HER2-His protein (Acro, Cat. No. …); assay: ELISA, 0.0001 nM
[8] = biological target: T2, human HER2 protein on cells (SK-BR-3 endogenous; CHO-K1-human HER2 recombinant) (human, UniProt P04626); assay: FACS on SK-BR-3 cells
T2 construct: also called human HER2-CHO-K1 cells

[9] = biological target: T2, human HER2 protein on cells (SK-BR-3 …); assay: FACS on CHO-K1-human HER2 cells
[10] = biological target: T3, monkey HER2-His protein (monkey); assay: ELISA, coated monkey HER2-His
T3 construct: Bought protein; also called monkey HER2 protein

[11] = biological target: T4, murine HER2-His protein (murine, UniProt P70424 23-653); assay: ELISA, coated murine HER2-His
T4 construct: Bought protein; also called murine HER2 protein; not shown: His tag

[12] = biological target: T5, monkey HER2 on HEK293T-monkey-HER2 cells (monkey); assay: FACS on HEK293T-monkey-HER2 cells
T5 construct: whole, on cells

[13] = biological target: T6, recombinant human HER2-His protein (human, UniProt P04626 part only, limits assumed); assay: SPR, antibody captured on Protein A chip, human HER2-His analyte, 1:1 model
T6 construct: also called human HER2 protein; not shown: His tag

[14] = biological target: T3, monkey HER2-His protein; assay: SPR, antibody captured on Protein A chip, monkey HER2-His analyte, 1:1 model
[15] = biological target: T4, murine HER2-His protein; assay: SPR, antibody captured on Protein A chip, murine HER2-His analyte, 1:1 model

| Binder | OD450 [1] | OD450 [2] | OD450 [3] | OD450 [4] | OD450 [5] | OD450 [6] | OD450 [7] | EC50 [8] [nM] | Max MFI [8] | EC50 [9] [nM] | Max MFI [9] | OD450 nm at 0.0001 nM antibody [10] [OD450 nm] | OD450 nm at 0.001 nM antibody [10] [OD450 nm] | OD450 nm at 0.01 nM antibody [10] [OD450 nm] | OD450 nm at 0.1 nM antibody [10] [OD450 nm] | OD450 nm at 1 nM antibody [10] [OD450 nm] | OD450 nm at 10 nM antibody [10] [OD450 nm] | OD450 nm at 100 nM antibody [10] [OD450 nm] | OD450 nm at 0.0001 nM antibody [11] [OD450 nm] | OD450 nm at 0.001 nM antibody [11] [OD450 nm] | also measured |
| --- | --- | --- | --- | --- | --- | --- | --- | --- | --- | --- | --- | --- | --- | --- | --- | --- | --- | --- | --- | --- | --- |
| NB147-102 VHH-hFc (Fc fusion) QLQLVESGGGLVQPGGSLRLSCSASGRTFNNYVMAWFRQAAGKEREFVANINTSGGRTTYTDSVKDRFTISRDNAKNTMYIQMNNLKAEDTAVYYCAARILYNSDNSDYRKYYYWGQGTQVTVSS[human IgG1 Fc with changes not written out] | 2.73 | 3 | 1.17 | 3.03 | 0.2 | 0.06 | 0.05 | 1.81 | 7490 | 0.92 | 1580 |  |  |  |  |  |  |  |  |  |  |
| NB147-110 VHH-hFc (Fc fusion) EVQVVESGGGLVQPGGSLRLSCTASGHTLDYYAIGWFRQAPGKEREGVSCITSTGTITNYADSVKGRFTISRDNAKNTVYLQMNSLKPEDTAVYYCAVLRGSYCRSNTFDAWGQGTLVTVSS[human IgG1 Fc with changes not written out] | 2.83 | 2.9 | 0.79 | 3.05 | 0.14 | 0.06 | 0.05 | 2.7 | 7790 | 1.04 | 1360 |  |  |  |  |  |  |  |  |  |  |
| NB147-137 VHH-hFc (Fc fusion) EVQVVESGGGLVQPGGSLRLSCAASGFTLDYHAIGWFRQAPGKEREGVSCISSSGGRTNYADSVKGRFTISRDNAKNTVYLQMNSLKPEDTAVYYCAAEIFDSAWYCPLSRYDMDYWGKGTLVTVSS[human IgG1 Fc with changes not written out] | 2.7 | 2.91 | 1.06 | 3.14 | 0.17 | 0.08 | 0.05 | 4.75 | 4920 | 1.13 | 1060 |  |  |  |  |  |  |  |  |  |  |
| NB147-161 VHH-hFc (Fc fusion) QLQLVESGGGWVQAGGSLRLSCAASGFTLDYYAIGWFRQAPGKEREGVSCISSSGGRSNYADSVKGRFTISRDNAKNTVYLQMNSLKIEDTGVYYCAAVILDDSWQCGYYYNMDYWGKGTLVTVSS[human IgG1 Fc with changes not written out] | 2.34 | 2.73 | 0.74 | 2.95 | 0.12 | 0.06 | 0.05 | 5.5 | 4410 | 3.11 | 638 |  |  |  |  |  |  |  |  |  |  |
| NB147-36 VHH-hFc (Fc fusion) QLQLVESGGGLVQPGGSLRLSCAASGFTLDYHAIGWFRQAPGKEREGVSCISSSGGRINYADSVKGRFTISRDMTKNTVYLELNSLKPEDTAIYYCAAEIFDSSWYCPLSRNNMNYWGKGTLVAVSS[human IgG1 Fc with changes not written out] | 2.71 | 2.92 | 1.18 | 2.91 | 0.19 | 0.07 | 0.05 | 5.35 | 4950 | 2.36 | 1020 |  |  |  |  |  |  |  |  |  |  |
| NB147-66 VHH-hFc (Fc fusion) QLQLVESGGGLVHTGGSLRLSCAASGSTLDYHAIGWFRQAPGKEREGVSCITSSGGRTNYADSVKGRFTVSRDDAKNTVYLQMNSLKPEDTAVYYCAAVIYDSAWICNLLAGYEYRYWGQGTQVTVSS[human IgG1 Fc with changes not written out] | 2.28 | 2.56 | 0.85 | 2.94 | 0.15 | 0.06 | 0.05 | 6.71 | 5890 | 1.97 | 1300 |  |  |  |  |  |  |  |  |  |  |
| Tab094 (FRP5 ScFv-human IgG1 Fc) (Fc fusion, scFv-Fc control antibody; also called Tab94; FRP5 ScFv-hFc) QVQLQQSGPELKKPGETVKISCKASGYPFTNYGMNWVKQAPGQGLKWMGWINTSTGESTFADDFKGRFDFSLETSANTAYLQINNLKSEDMATYFCARWEVYHGYVPYWGQGTTVTVSSGGGGSGGGGSGGGGSDIQLTQSHKFLSTSVGDRVSITCKASQDVYNAVAWYQQKPGQSPKLLIYSASSRYTGVPSRFTGSGSGPDFTFTISSVQAEDLAVYFCQQHFRTPFTFGSGTKLEIK[human IgG1 Fc with changes not written out] | 2.94 | 3.34 | 0.82 | 3.43 | 0.12 | 0.06 | 0.05 | 4.77 | 8780 | 4.83 | 1660 |  |  |  |  |  |  |  |  |  |  |
| NB147-66 VHH-hFc (Fc fusion, the junction is not described) QLQLVESGGGLVHTGGSLRLSCAASGSTLDYHAIGWFRQAPGKEREGVSCITSSGGRTNYADSVKGRFTVSRDDAKNTVYLQMNSLKPEDTAVYYCAAVIYDSAWICNLLAGYEYRYWGQGTQVTVSS[human IgG1 Fc with changes not written out] |  |  |  |  |  |  |  |  |  |  |  | 0.05 | 0.07 | 0.16 | 1.06 | 2.53 | 2.74 | 3.13 | 0.05 | 0.06 | OD450 nm at 0.01 nM antibody [11]: 0.18 OD450 nm; OD450 nm at 0.1 nM antibody [11]: 1.08 OD450 nm; OD450 nm at 1 nM antibody [11]: 2.52 OD450 nm; OD450 nm at 10 nM antibody [11]: 2.8 OD450 nm; OD450 nm at 100 nM antibody [11]: 3.13 OD450 nm; EC50 [12]: 4.02 nM; Max MFI [12]: 19200 MFI; Kd [13]: 93 nM; koff [13]: 0.00204 s⁻¹; kon [13]: 21900 M⁻¹ s⁻¹; Kd [14]: 59.3 nM; koff [14]: 0.00439 s⁻¹; kon [14]: 74000 M⁻¹ s⁻¹; Kd [15]: 467 nM; koff [15]: 0.00744 s⁻¹; kon [15]: 15900 M⁻¹ s⁻¹ |
| NB147-32 VHH-hFc (Fc fusion, the junction is not described) QLQLVESGGGLVQSGGSLRLSCAASGFSLDYHAIGWFRQAPGKEREGVSCISSSGGRTNYADSVKGRFTISRDNAKNTVYLQMNSLKPEDAAVYSCAAVIYNSAWICNLLTGYEYEYWGQGTQVTVSS[human IgG1 Fc with changes not written out] |  |  |  |  |  |  |  |  |  |  |  | 0.05 | 0.06 | 0.19 | 1.19 | 2.7 | 2.83 | 2.83 | 0.05 | 0.06 | OD450 nm at 0.01 nM antibody [11]: 0.2 OD450 nm; OD450 nm at 0.1 nM antibody [11]: 1.2 OD450 nm; OD450 nm at 1 nM antibody [11]: 2.75 OD450 nm; OD450 nm at 10 nM antibody [11]: 2.93 OD450 nm; OD450 nm at 100 nM antibody [11]: 2.92 OD450 nm; EC50 [12]: 2.8 nM; Max MFI [12]: 18300 MFI; Kd [14]: 68.3 nM; koff [14]: 0.00279 s⁻¹; kon [14]: 40900 M⁻¹ s⁻¹; Kd [15]: 374 nM; koff [15]: 0.00677 s⁻¹; kon [15]: 18100 M⁻¹ s⁻¹ |
| NB147-61 VHH-hFc (Fc fusion, the junction is not described) EVQLVESGGGMVQPGGSLRLSCAASGFTLDYYAIGWFRQAPGKEREGVSCISSSGGRTNYADSVKGRFTISRDDARNTVYLQMNTLKPEDTAVYYCAAVILDNSWHCGYSYDMDYWGKGTLVTVSS[human IgG1 Fc with changes not written out] |  |  |  |  |  |  |  |  |  |  |  | 0.05 | 0.06 | 0.16 | 0.97 | 2.49 | 2.77 | 3.12 | 0.05 | 0.06 | OD450 nm at 0.01 nM antibody [11]: 0.14 OD450 nm; OD450 nm at 0.1 nM antibody [11]: 0.91 OD450 nm; OD450 nm at 1 nM antibody [11]: 2.47 OD450 nm; OD450 nm at 10 nM antibody [11]: 2.78 OD450 nm; OD450 nm at 100 nM antibody [11]: 3.13 OD450 nm; EC50 [12]: 3.79 nM; Max MFI [12]: 18400 MFI; Kd [14]: 91.1 nM; koff [14]: 0.0173 s⁻¹; kon [14]: 190000 M⁻¹ s⁻¹; Kd [15]: 685 nM; koff [15]: 0.0569 s⁻¹; kon [15]: 83000 M⁻¹ s⁻¹ |
